Experimental data taken from PubChem BioAssay AID504466 (National Center for Advancing Translational Sciences (NCATS), 2011).
Screen size: about 330,000 compounds; about 4,200 (1.3%) were called active. The shares of active, inactive and inconclusive entries below differ from those in the screen. The call rests on the fitted dose curve; in most records, active means well fitted activation curve with a large enough effect; inconclusive means small, poorly fitted or top-dose-only effect; inactive means no such curve, though single readings can be large or run the other way. Potencies beside an inconclusive call are fits to weak or partial responses and may not hold up.

assay: qHTS screen for small molecules that induce genotoxicity in human embryonic kidney (HEK293T) cells expressing luciferase-tagged ELG1; conditions: HEK293T ELG1-luciferase reporter, luminescence, 16 h; series mostly up to 46 µM; further: nearly all actives have a fitted effect of over 60% in size
Summary of the method: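 HEK293T cells expressing luciferase-tagged ELG1 were treated with compound or DMSO for 16 hr at 37°C. Luciferase activity was then read after 30 min with ONE-Glo at room temperature; rising signal flags genetic stress.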
Potency means the concentration at half of the fitted maximal effect; tags describe the fitted curve by direction and shape.

**Q.** Which Potency does the source give for `COc1cc(CC(=O)OCC(=O)NC2CCCCCC2)cc(OC)c1OC` here?
**A.** inactive

**Q.** For `COc1ccccc1NC(=O)Nc1ccc(C(=O)N2CCCCC2)cc1`, which Potency is on record?
**A.** active: 13 µM

**Q.** For `Cc1cccc(Cn2nc(C)cc2NC(=O)CCCn2ccc([N+](=O)[O-])n2)c1`, which Potency is on record?
**A.** inactive

**Q.** For `O=C(CCc1nc2ccccc2c(=O)[nH]1)Nc1nnc(SCc2ccccc2F)s1`, which Potency is on record?
**A.** inconclusive: 25.9 µM [activator, single point]

**Q.** For `CCOC(=O)N1CCN(S(=O)(=O)c2ccc(C(=O)N(CCN(CC)CC)c3nc4ccc(C)cc4s3)cc2)CC1`, which Potency is on record?
**A.** inactive

**Q.** For `CCS(=O)(=O)N1Cc2ccccc2CC1C(=O)Nc1nc2ccccc2s1` (stereo unspecified), which Potency is on record?
**A.** active: 2.31 µM

**Q.** With `COc1cccc(/C=N/NC(=O)C(=O)NCc2cccnc2)c1OC` as the compound, how does the Potency read?
**A.** inactive

**Q.** For `Cn1c(SCc2ccccc2)nnc1-c1cccs1`, which Potency is on record?
**A.** inconclusive: 20.6 µM [activator, partial curve]

**Q.** Which Potency does the source give for `O=C1COc2ccc(OCc3ccc(F)cc3)cc21` here?
**A.** inconclusive: 9.2 µM [activator, partial curve]

**Q.** Which Potency does the source give for `O=C(NC(=S)Nc1sc2c(c1C(=O)O)CCCC2)c1ccccc1` here?
**A.** inactive

**Q.** Which Potency does the source give for `CCOC(=O)c1ccc(N/C=C\C(=O)c2cccc(OC)c2)cc1` here?
**A.** inactive

**Q.** For `COc1cc(/C=N/OCC(=O)Nc2cc(C)cc(C)c2)ccc1OCc1ccc(Cl)cc1`, which Potency is on record?
**A.** inconclusive: 13 µM [activator, partial curve]

**Q.** With `CC1=CCC(COC(=O)Nc2ccccc2)CC1` (stereo unspecified) as the compound, how does the Potency read?
**A.** inconclusive: 6.51 µM [activator, partial curve]

**Q.** Which Potency does the source give for `C=CCOn1c(=O)c(-c2ccccc2)[n+]([O-])c2ccccc21` here?
**A.** inconclusive: 25.9 µM [activator, single point]

**Q.** With `CC(C)(C)c1ccc(SCCc2ccccn2)cc1` as the compound, how does the Potency read?
**A.** inconclusive: 9.2 µM [activator, partial curve]

**Q.** With `CC(=O)c1ccc(N2C(=O)NC3(CCCCC3)C2=O)cc1` as the compound, how does the Potency read?
**A.** inconclusive: 20.6 µM [activator, partial curve]

**Q.** Which Potency does the source give for `CCNS(=O)(=O)c1ccc(CCC(=O)N2CCN(C(=O)OCC)CC2)cc1` here?
**A.** inactive

**Q.** For `O=C(c1ccc2c(=O)n3c(nc2c1)CCCCC3)N1CCc2ccccc21`, which Potency is on record?
**A.** inactive

**Q.** For `COc1ccc(/C(C)=N/NC(=O)c2nc(C)cc(C)n2)cc1`, which Potency is on record?
**A.** active: 5.62 µM

**Q.** Which Potency does the source give for `O=C(Nc1cccc([N+](=O)[O-])c1)Nc1cnccn1` here?
**A.** inconclusive: 29.1 µM [activator, partial curve, poor fit]

**Q.** Which Potency does the source give for `Cc1ccc(C)c(OCc2nnc(NC(=O)c3ccc4c(c3)OCO4)s2)c1` here?
**A.** inconclusive: 23.1 µM [activator, partial curve, poor fit]

**Q.** For `O=C(Nc1ccccc1)Nc1nc(-c2ccccc2)cs1`, which Potency is on record?
**A.** inactive

**Q.** For `Cc1nn(-c2ccccc2)c2nc(N)c(C#N)c(-c3ccc(F)cc3)c12`, which Potency is on record?
**A.** inactive

**Q.** For `O=[N+]([O-])c1ccc(S(=O)(=O)NCCN2CCOCC2)cc1`, which Potency is on record?
**A.** inconclusive: 3.66 µM [activator, partial curve, poor fit]

**Q.** For `CCn1c(O)c(N=Nc2ccc3ccccc3n2)c2ccccc21`, which Potency is on record?
**A.** active: 5.8 µM

**Q.** Which Potency does the source give for `Cc1ccccc1OCc1nc2ccccc2[nH]1` here?
**A.** inconclusive: 3.66 µM [activator, full curve]

**Q.** For `Nc1c(C(=O)Nc2ccc3c(c2)OCCO3)nnn1Cc1ccc(Br)cc1`, which Potency is on record?
**A.** inconclusive: 7.3 µM [activator, partial curve]

**Q.** Which Potency does the source give for `Nc1cccc(-c2cn3cc(C(F)(F)F)cc(Cl)c3n2)c1` here?
**A.** inconclusive: 1.84 µM [activator, full curve]

**Q.** With `Cc1ccc(C(=O)N/N=C\c2ccncc2)s1` as the compound, how does the Potency read?
**A.** inconclusive: 18.3 µM [activator, partial curve]

**Q.** For `COc1ccc(NS(=O)(=O)c2cc3c4c(c2)CCN4C(=O)CC3)cc1OC`, which Potency is on record?
**A.** inactive

**Q.** For `CCc1ccc(NC(=S)NC(=O)CC(C)C)cc1`, which Potency is on record?
**A.** inconclusive: 20.6 µM [activator, partial curve]

**Q.** With `C=CCOC(=O)Cn1cnc2c(sc3nc(C)cc(C)c32)c1=O` as the compound, how does the Potency read?
**A.** inconclusive: 5.62 µM [activator, full curve]

**Q.** Which Potency does the source give for `CCOC(=O)Cc1csc(NC(=O)CSc2nc(=O)[nH]c3c2CCC3)n1` here?
**A.** inactive

**Q.** For `CCOC(=O)CC1(c2ccccc2)CCOC(C)(C)C1` (stereo unspecified), which Potency is on record?
**A.** inconclusive: 23.1 µM [activator, partial curve, poor fit]

**Q.** With `Fc1ccc(SCCc2ccccn2)cc1` as the compound, how does the Potency read?
**A.** inconclusive: 20.6 µM [activator, partial curve, poor fit]

**Q.** For `Cc1cccn2c(=O)nc(SCC(=O)c3ccc(Cl)cc3)nc12`, which Potency is on record?
**A.** inconclusive: 25.9 µM [activator, partial curve, poor fit]

**Q.** For `CCN1CCN(c2ccc(NC(=O)c3ccc4c(c3)OCCO4)cc2C)CC1`, which Potency is on record?
**A.** inconclusive: 5.17 µM [activator, partial curve, poor fit]

**Q.** For `O=C(CC(Nc1ccccc1Cl)C(=O)O)c1ccccc1` (stereo unspecified), which Potency is on record?
**A.** active: 2.91 µM

**Q.** With `Cc1ccccc1NC(=O)c1cccnc1` as the compound, how does the Potency read?
**A.** inactive

**Q.** Which Potency does the source give for `CNC(=O)c1[nH]cnc1C(=O)Nc1ccccc1` here?
**A.** inconclusive: 25.9 µM [activator, partial curve, poor fit]

**Q.** For `Cc1c(O)ccc(/C=N/Nc2nc(-c3cccnc3)nc3ccccc23)c1O`, which Potency is on record?
**A.** inactive

**Q.** For `Cc1c(C(=O)NC2CCC(C)CC2)oc2ccccc12` (stereo unspecified), which Potency is on record?
**A.** inconclusive: 9.2 µM [activator, single point]

**Q.** With `Nc1nonc1-n1nnc(C(=O)N/N=C/c2ccc(OCc3ccccc3)cc2)c1COc1ccc(F)cc1` as the compound, how does the Potency read?
**A.** inconclusive: 18.3 µM [activator, partial curve, poor fit]

**Q.** Which Potency does the source give for `CCCC1CCC(C2=N/C(=C\c3ccc(OC)c(OC)c3)C(=O)O2)CC1` (stereo unspecified) here?
**A.** inactive

**Q.** For `Cn1c(O)c(C2=c3ccccc3=NC2=O)[nH]c1=S`, which Potency is on record?
**A.** inactive

**Q.** For `CCCn1nc(NC(=O)c2cccs2)c2cc3ccccc3nc21`, which Potency is on record?
**A.** inactive

**Q.** With `CCOC(=O)C1=CN(Cc2ccco2)S(=O)(=O)N(CC)C1c1cccc(OC)c1` (stereo unspecified) as the compound, how does the Potency read?
**A.** inactive

**Q.** With `N#Cc1c(NC(=O)C2CCCO2)sc2c1CCCCC2` (stereo unspecified) as the compound, how does the Potency read?
**A.** inconclusive: 3.26 µM [activator, single point]

**Q.** For `NC(=O)c1ccccc1NC(=O)/C=C/c1ccccc1`, which Potency is on record?
**A.** inconclusive: 8.2 µM [activator, partial curve]

**Q.** Which Potency does the source give for `Cc1ccc(Nc2nc3ccccc3[nH]2)nc1` here?
**A.** inconclusive: 7.31 µM [activator, partial curve]

**Q.** Which Potency does the source give for `Cc1cccc(-n2nnc(C(=O)Nc3ccc(F)cc3)c2N)c1` here?
**A.** inactive

**Q.** Which Potency does the source give for `Cc1cccc(C)c1NC(=O)c1c[nH]c2ccccc12` here?
**A.** inconclusive: 5.8 µM [activator, partial curve, poor fit]

**Q.** For `Cc1cc(C)n2nc(C(=O)Nc3ccc4c(c3)OCCO4)nc2n1`, which Potency is on record?
**A.** inconclusive: 11.6 µM [activator, partial curve, poor fit]

**Q.** For `CC(NC(=O)C(=O)c1cn(CC(=O)N2CCOCC2)c2ccccc12)c1ccccc1` (stereo unspecified), which Potency is on record?
**A.** inactive

**Q.** With `Nc1nc(N)c2sc3nc4c(cc3c2n1)CCC4` as the compound, how does the Potency read?
**A.** inconclusive: 16.4 µM [activator, single point]

**Q.** For `Cc1cc(/C=N/NC(=O)COc2cccc3cccnc23)c(C)n1-c1ccc(O)cc1`, which Potency is on record?
**A.** inactive

**Q.** For `COc1ccc(/C=C/C(=O)Nc2ccccc2)cc1OC`, which Potency is on record?
**A.** inconclusive: 9.2 µM [activator, partial curve]

**Q.** Which Potency does the source give for `O=C1C2CC=CCC2C(=O)N1n1cnnc1` (stereo unspecified) here?
**A.** inactive

**Q.** With `NC(=O)C1CCCN(C(=O)c2ccc(S(=O)(=O)N3CCCCCC3)cc2)C1` (stereo unspecified) as the compound, how does the Potency read?
**A.** inactive

**Q.** With `Fc1ccc(-c2csc(Nc3ccccn3)n2)c(F)c1` as the compound, how does the Potency read?
**A.** inconclusive: 2.06 µM [activator, full curve]

**Q.** Which Potency does the source give for `COc1ccc(-c2nnc(SCC(=O)c3ccc[nH]3)n2-c2ccccc2)cc1` here?
**A.** inconclusive: 13 µM [activator, partial curve, poor fit]

**Q.** With `Oc1ccc(-c2csc(Nc3ccccn3)n2)cc1` as the compound, how does the Potency read?
**A.** active: 7.3 µM

**Q.** With `Cc1ccc2oc(-c3cccc(NC(=O)C4CCCO4)c3)nc2c1` (stereo unspecified) as the compound, how does the Potency read?
**A.** active: 20.6 µM

**Q.** With `N#C/C(=C\c1ccc(OC(=O)c2cccs2)cc1)c1nc2ccccc2[nH]1` as the compound, how does the Potency read?
**A.** inconclusive: 32.6 µM [activator, partial curve, poor fit]

**Q.** With `CC1(c2ccc3c(c2)OCCCO3)NC(=O)N(CC(=O)Nc2cccc(C#N)c2)C1=O` (stereo unspecified) as the compound, how does the Potency read?
**A.** inactive

**Q.** For `COc1cc2nc(N3CCN(C(=O)OCc4ccccc4)[C@H](C(=O)NC(C)(C)C)C3)nc(N)c2cc1OC`, which Potency is on record?
**A.** inconclusive: 16.4 µM [activator, partial curve, poor fit]

**Q.** Which Potency does the source give for `COc1ccc(COC(=O)c2ccc(Cl)c(S(=O)(=O)N3CC(C)OC(C)C3)c2)cc1` (stereo unspecified) here?
**A.** inconclusive: 18.3 µM [activator, single point]

**Q.** For `CN(C)/C=N/c1cc(=O)n(C)c(=O)n1Cc1ccccc1`, which Potency is on record?
**A.** inconclusive: 18.4 µM [activator, single point]

**Q.** For `CCN1CCN(C(=O)c2ccc(CSc3ccc(C)cc3)cc2)CC1`, which Potency is on record?
**A.** inactive

**Q.** Which Potency does the source give for `COc1cc2c(cc1OC)CN(C(=O)c1cc(S(=O)(=O)N3CCOCC3)ccc1C)CC2` here?
**A.** inactive

**Q.** Which Potency does the source give for `Cc1cccc(/C=N/N2CCN(c3ccccc3)CC2)c1` here?
**A.** inconclusive: 7.31 µM [activator, partial curve, poor fit]

**Q.** Which Potency does the source give for `CC(C)(C)C(=O)CSc1nnc(Nc2ccccc2)s1` here?
**A.** inconclusive: 20.6 µM [activator, partial curve, poor fit]

**Q.** With `CC(C)CC(=O)N/C(N)=N/c1nc2ccccc2o1` as the compound, how does the Potency read?
**A.** inconclusive: 2.31 µM [activator, full curve, poor fit]

**Q.** Which Potency does the source give for `Oc1c(C(Nc2nc3ccccc3s2)c2ccco2)ccc2cccnc12` (stereo unspecified) here?
**A.** active: 18.4 µM

**Q.** Which Potency does the source give for `Cc1cnn(C(=S)NCCc2ccccc2)c1` here?
**A.** active: 14.6 µM

**Q.** Which Potency does the source give for `S=c1[nH]nc(CSc2nc3ccccc3s2)n1C1CCCCC1` here?
**A.** inactive
